GI50 and TGI data for 82 compounds are collected here from PubChem BioAssay (NCI).

The assay has as its system NCI-H322M lung. The assay is described as follows: NCI anticancer screen, dose series, 48 h.

Where “and” joins values, the source holds several entries; their conditions need not be identical. Equal values may be shown once.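 Step 1: Grow cells in 96-well plates. Step 2: Expose to compound for 48 hours at 5 concentrations. Step 3: Interpolate endpoints linearly; if unreached, use highest concentration. The concentration for 50% growth inhibition is given as GI50. TGI denotes the concentration required for complete inhibition of growth.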 A value given as a limit tells only on which side of the number the result lay.

Consider `C#CCN1C(=O)/C(=c2\sc3n(c2=O)C2C(NN=3)N(CC)C(=O)N2CC)c2ccccc21` (configuration not stated), for which the GI50 was 3.83 µM and the TGI was above 100 µM.

Take `Nc1nc(Cl)cc(N=Nc2ccccc2)n1`: the TGI is above 100 µM.

In the case of `Cc1cc(Cc2c(F)c(F)c(Cc3cc(C)no3)c(F)c2F)on1`, the TGI was above 100 µM.

In turn, `CC(=O)N(CN1C(=O)CCC1C(=O)O)c1ccccc1` (configuration not stated) returned a TGI above 100 µM.

Take `COc1ccc(/C(C)=C(\c2ccc(Cl)cc2)c2ccc(OCCN3CCCC3)cc2)cc1`: the GI50 is 3.5 µM and the TGI is 7.56 µM.

Take `O=C(/C=C/c1ccc(C(F)(F)F)cc1)c1ccc(Nc2nc(NCCO)nc(NCCO)n2)cc1`: the GI50 was 2.33 µM and the TGI is 11.3 µM.

Take `CCOC(=O)C(C)(C)Oc1ccc2c(=O)cc(-c3ccccc3)oc2c1`: the TGI is above 100 µM.

Compound `CC(CCC(=O)O)[C@H]1CCC2[C@H]3C(CC[C@@]21C)[C@@]1(C)CCC(O)C[C@H]1C[C@@H]3O` (some centres not stated) returned a TGI above 100 µM.

On to `C[C@]12O[C@H](C[C@]1(O)CO)n1c3ccccc3c3c4c(c5c6ccccc6n2c5c31)CNC4=O`, for which the GI50 was 1.29 µM and 1.37 µM; the TGI was 6.24 µM and 6.62 µM.

Regarding `CC(=O)Oc1ccc(OC(C)=O)c2ccccc12`, the GI50 is 71.3 µM and the TGI was above 100 µM.

The compound `S=c1nc(-c2nc(=S)[nH]c3c2CCCCCCCCCC3)c2c([nH]1)CCCCCCCCCC2` showed a TGI above 100 µM.

As for `COC(=O)/C=C/C(=O)C1C(C(=O)OC)C2(C(=O)OC)CCC1(C(=O)OC)N2` (configuration not stated), the TGI was above 100 µM.

The compound `OCC1OC(n2cnc3cccnc32)CC1O` (configuration not stated) came in with a TGI above 100 µM.

For `CCOC(=O)C1N(S(=O)(=O)c2ccc(C)cc2)CCC12c1ccccc1N(C(C)=O)C2C(/C=C/C(=O)OC)=C/C(=O)OC` (configuration not stated), the TGI is above 100 µM.

With `Nc1ccc(-c2nc3ccc4[nH]ncc4c3c3c2CCCC3)cc1F`, the GI50 is 1.51 µM and the TGI is 14.1 µM.

Compound `Cc1ccc(S(=O)(=O)n2cncc2CO)cc1` had a TGI above 100 µM.

For `Cc1c[nH]c2c1C13CC1CN(C(=O)c1cc4cc(NC(=O)c5cc6ccccc6o5)ccc4[nH]1)C3=CC2=O` (configuration not stated), the GI50 was above 1.17 ng/mL and the TGI was below 0.001 µM.

`O=[N+]([O-])c1cccc([N+](=O)[O-])c1S(=O)(=O)c1ccccc1` yielded a TGI of 34.1 µM.

On to `CCOc1ccc2[nH]c3c(C)c4cc[n+](C)cc4c(C)c3c2c1`, for which the GI50 was 1.48 µM and 3.48 µM; the TGI is 93.6 µM and > 100 µM.

As for `CS(=O)(=O)OCCN1CCC2(CC1)SSC1(CCN(CCOS(C)(=O)=O)CC1)S2`, the TGI is above 100 µM.

Consider `O=C(CC(=O)N1N=C(c2ccccc2)C(N=Nc2ccc(C(=O)O)cc2)C1=O)Nc1ccc(F)cc1` (configuration not stated), for which the TGI is 86 µM.

In turn, `COc1ccc(C(O)c2ccc3c(c2)OCO3)cc1` (configuration not stated) displayed a TGI above 100 µM.

For `CC1(C)O[C@@H](CO)[C@H]([C@@]23OC[C@H]4OC(C)(C)OC4[C@@H]2OC(C)(C)O3)O1` (some centres not stated), the TGI is above 100 µM.

Compound `Cn1cnc([N+](=O)[O-])c1Sc1ccccn1` yielded a TGI above 100 µM.

Regarding `CCCCc1c2c(nc3c1CCc1cc4c(nc1-3)-c1nc3c(c(CCCC)c1CC4)CCC/C3=C\c1ccccc1)/C(=C/c1ccccc1)CCC2`, the TGI was above 100 µM.

Turning to `Cc1nc(C)c(C(=O)Nc2cccc3c2C(=O)NC3=O)cc1C(=O)Nc1cccc2c1C(=O)NC2=O`, the TGI was above 100 µM.

Take `CCCCCc1cc2c(cc1O)CC[C@@H]1[C@@H]2CC[C@]2(C)[C@@H](O)CC[C@@H]12`: the TGI was found to be 26.8 µM.

The compound `CCOC(=O)c1ccc2nc(NC(=O)COC(=O)CSc3nc(C)cc(C)n3)sc2c1` gave a TGI above 100 µM.

The compound `COC(=O)c1sc(=S)sc1SCc1ccccc1CSc1sc(=S)sc1C(=O)OC` gave a TGI above 100 µM.

`O=C(c1ccccc1)C1C(C(=O)c2ccccc2)N1Cc1ccccc1` (configuration not stated) gave a TGI above 100 µM.

Take `C/C1=C\[C@H](C)C[C@H](C)OC(=O)C[C@H](c2ccc(O)cc2)NC(=O)[C@@H](Cc2c(Br)[nH]c3ccccc23)N(C)C(=O)[C@H](C)NC(=O)[C@@H](C)C1`: the GI50 is 0.115 µM and the TGI was above 26.1 µM.

Regarding `NC(N)=N/N=C/c1c(-c2ccc([N+](=O)[O-])cc2)nc2sccn12`, the TGI amounted to 3.13 µM.

`C(=N\Nc1nnc2c(n1)[nH]c1ccccc12)/c1cccnc1` returned a TGI above 100 µM.

As for `CC#C[C@@]1(O)CCCC[C@@H]1O`, the TGI was above 100 µM.

Turning to `CC(CN=C(CC(=O)c1ccc(Br)cc1)c1ccccc1)N=C(CC(=O)c1ccc(Br)cc1)c1ccccc1` (configuration not stated), the GI50 was 6.23 µM and the TGI is above 100 µM.

`CC1(C)COC(c2cccc(C3=NC(C)(C)CO3)c2Br)=N1`: the TGI was above 100 µM.

As for `CCCn1c(C23CC4CC(CC(C4)C2)C3)nc2ccc(Cl)cc2c1=O`, the TGI was above 100 µM.

The compound `Cc1ccc2nc3c(C)c(Cl)c(=O)cc-3sc2c1` yielded a TGI above 100 µM.

`CC[C@@]1(O)C(=O)NCc2c1cc1n(c2=O)Cc2cc3ccccc3nc2-1`: the GI50 is 21.3 µM and the TGI is above 100 µM.

`Nc1ccc2c(c1)C(=O)c1ccccc1-2` had a TGI above 100 µM.

As for `CC(C)(C)N=C1CC(C)(C)c2ccccc2C(=Nc2ccccc2)S1`, the TGI is above 100 µM.

Compound `C#CCNC(Cc1cnc[nH]1)C(=O)O` (configuration not stated) gave a TGI above 100 µM.

For the compound `COc1ccc(C(=O)c2cc(OC)c(OC)c(OC)c2)cc1OC(C)=O`, the GI50 is 0.0936 µM and the TGI is above 100 µM.

The compound `CCC1(CC)C(=O)CC[C@@]2(C)C1=CC[C@H]1[C@@H]3CC[C@H](O)[C@@]3(C)CC[C@@H]12` returned a TGI above 100 µM.

With `CC(C)C[C@H](NC(=O)[C@H](CCc1ccccc1)NC(=O)CN1CCOCC1)C(=O)N[C@@H](Cc1ccccc1)C(=O)N[C@@H](CC(C)C)C(=O)[C@@]1(C)CO1`, the GI50 is 0.0664 µM and the TGI is 0.48 µM.

Compound `COC(=O)C1=C(OC)c2cc3c(cc2C(c2cc(OC)c(OC)c(OC)c2)C1C(=O)OC)OCO3` (configuration not stated) gave a TGI above 100 µM.

`Cc1nnc2cc(C(=O)O)c3ccccc3n2c1=O` registered a TGI above 10 µM.

In turn, `CNC(=O)CCC(NC(C)=O)C(=O)NC(Cc1ccc(NC(=O)CCCCC(C)=O)cc1)C(=O)NC(CCC(=O)NC)C(=O)NC` (configuration not stated) came in with a TGI above 100 µM.

In turn, `O=C(CC(O)(C(F)(F)F)C(F)(F)F)C(CCCl)C(O)(C(F)(F)F)C(F)(F)F` (configuration not stated) displayed a TGI above 100 µM.

Regarding `COc1cc2cc(C(=O)N3CC(CCl)c4c3cc(N)c3ccccc43)[nH]c2cc1OCCN(C)C` (configuration not stated), the TGI was determined as 0.0166 µM.

Regarding `Cc1cccc(C(C)(C)C)c1NC(=O)/C(Cc1nc2ccc([N+](=O)[O-])cc2[nH]c1=O)=N/NC(=O)C[N+](C)(C)C`, the TGI was above 100 µM.

Turning to `COc1ccc(-c2ccc(/C=C/C(=O)NO)cc2)cc1`, the GI50 was 1.83 µM and the TGI was 19 µM.

As to `O=C(c1ccccc1)c1c(C(F)(F)F)n([O-])c2ccccc2[n+]1=O`, the TGI was 8.15 µM.

`COc1ccc(C2(c3ccc(OC)cc3)OC(=O)c3cccc4cccc2c34)cc1`: the TGI is 6.37 µM.

In the case of `CN1/C(=C\C(I)C(I)C2=[N+](C)c3ccccc3C2(C)C)C(C)(C)c2ccccc21` (configuration not stated), the GI50 was 1.01 µM and the TGI turned out to be 41.4 µM.

For the compound `CC1=CC(O)C(O)C2(C)C1CC1OC(=O)C(O)C3C(C)C(O)C4(O)OCC13C42` (configuration not stated), the TGI was determined as 87.7 µM.

`Cc1cc(C)c(S(=O)(=O)N(CCCCN)OCCCN)c(C)c1` registered a TGI of 30.2 µM.

With `COP(=O)(OC)C(N)CCSC` (configuration not stated), the TGI was above 100 µM.

`CC(NC(=O)/C(=C/c1ccccc1O)NC(=O)c1ccccc1)C(=O)O` (configuration not stated): the TGI is above 100 µM.

In turn, `C[Si](C)(C)/C=C/CCC(C=O)(CCCl)c1ccccc1` (configuration not stated) yielded a TGI above 100 µM.

The compound `Clc1nc(-[n+]2ccc(-c3ccncc3)cc2)nc(Nc2ccccc2)c1Cl` had a TGI above 100 µM.

`O=C1/C(=C/c2ccccc2)CCc2ccc(Cl)nc21` yielded a TGI of 31.1 µM.

`COc1ccc(/C=C/c2cc(O)cc(OC)c2)cc1` returned a TGI above 100 µM.

For `CC(=O)O[C@H]1C#C/C=C\C#CC[C@@H]2C(=O)N(C(=O)OC(C)(C)C)[C@@H]12`, the TGI was above 100 µM.

The compound `CC(C)[C@@H]1C=C(c2ccccc2)c2ccccc2C1C(C#N)(C#N)C(C)C` (some centres not stated) showed a TGI above 100 µM.

On to `NC(=O)CCC(NC(=O)OCc1ccccc1)C(=O)OCC(=O)c1ccccc1` (configuration not stated), for which the GI50 is above 100 µM and the TGI is above 100 µM.

`COc1ccccc1/C=C\c1cnnc2ccccc12` came in with a TGI above 10 µM.

The compound `c1ccc2c(CNCCCCCCNCc3cccc4ccccc34)cccc2c1` returned a TGI of 10.5 µM.

In the case of `COC(=O)C(/C(=N/NC(=O)c1ccncc1)C(=O)Nc1ccccc1OC)c1nc2ccc(Cl)cc2[nH]c1=O` (configuration not stated), the TGI is above 100 µM.

As to `Cc1cc2ccccc2c[n+]1CC(O)C[n+]1cc2ccccc2cc1C`, the TGI is above 100 µM.

Turning to `Cc1csc2c1C(=O)c1ccsc1C2=O`, the TGI turned out to be 4.68 µM.

For `Cn1nc(C(F)(F)F)c(-c2ccc(Cl)c(C(F)(F)F)c2)c1-c1ccc(OCc2ccc(Cl)cc2)cc1O`, the GI50 is 1.85 µM and the TGI was 7.46 µM.

Turning to `COc1ccc2c(c1)CCC1C2CC[C@@]2(C)C1CC[C@@]2(O)CNC(=O)/C=C/c1ccc(O)c(OC)c1` (some centres not stated), the GI50 is 13.3 µM and the TGI was above 100 µM.

In turn, `S=c1nc[nH]c2c1ncn2Cc1ccco1` had a TGI above 100 µM.

For the compound `CCOC(=O)c1ccc(C(=O)C(C(C)=O)C(=O)OC(C)(C)C)n1C` (configuration not stated), the TGI is above 100 µM.

Regarding `Cl.[Pt].[c-]1ccccc1-c1ccccn1.c1ccc(P(c2ccccc2)C([PH+](c2ccccc2)c2ccccc2)[PH+](c2ccccc2)c2ccccc2)cc1`, the GI50 was 2.24 µM and the TGI worked out at 21.1 µM.

As for `CN=C(Nn1cnnc1)OC`, the TGI was above 100 µM.

The compound `CCCCC[C@@H]1OCO[C@@]2(C)/C=C(C)/C=C/C(=O)O[C@H]([C@@H](C)[C@@H](O)[C@H](C)[C@@]3(O)C[C@@H](O[C@H]4C[C@@H](O)[C@H](O)[C@@H](C)O4)[C@H](C)[C@@H](C)O3)[C@@H](OC)/C=C/C=C(\C)C[C@@H]1[C@@H]2O` (stereo in doubt) registered a TGI of 1.86 µM.

In turn, `N#Cc1cccc(NC(=O)c2ccc(C(=O)O)c(C(=O)c3ccc(C(=O)O)c(C(=O)Nc4cccc(C#N)c4)c3)c2)c1` showed a TGI above 100 µM.

As for `c1ccc(CCN2CCCCCC2)nc1`, the TGI was above 100 µM.

As to `CC1=NNC(=NCCN(C)C)C/C1=C/c1ccccc1Cl`, the TGI is above 100 µM.

Turning to `CN(C)CCCNc1nn2c(=O)c3ccccc3nc2c2ccccc12`, the GI50 was 14.9 µM and the TGI was above 100 µM.
